Values of other authors, collected in US20080213253A1, “COMBINATION THERAPY FOR THE TREATMENT OF CANCER” (DYAX CORP., priority 2007, published 2008).

What was measured:
[1] = target: T1, Tie complex (Tie1 and Tie2) (Homo sapiens, UniProt P35590); conditions: statement in words, no data shown
T1 sequence (P35590 22-1138): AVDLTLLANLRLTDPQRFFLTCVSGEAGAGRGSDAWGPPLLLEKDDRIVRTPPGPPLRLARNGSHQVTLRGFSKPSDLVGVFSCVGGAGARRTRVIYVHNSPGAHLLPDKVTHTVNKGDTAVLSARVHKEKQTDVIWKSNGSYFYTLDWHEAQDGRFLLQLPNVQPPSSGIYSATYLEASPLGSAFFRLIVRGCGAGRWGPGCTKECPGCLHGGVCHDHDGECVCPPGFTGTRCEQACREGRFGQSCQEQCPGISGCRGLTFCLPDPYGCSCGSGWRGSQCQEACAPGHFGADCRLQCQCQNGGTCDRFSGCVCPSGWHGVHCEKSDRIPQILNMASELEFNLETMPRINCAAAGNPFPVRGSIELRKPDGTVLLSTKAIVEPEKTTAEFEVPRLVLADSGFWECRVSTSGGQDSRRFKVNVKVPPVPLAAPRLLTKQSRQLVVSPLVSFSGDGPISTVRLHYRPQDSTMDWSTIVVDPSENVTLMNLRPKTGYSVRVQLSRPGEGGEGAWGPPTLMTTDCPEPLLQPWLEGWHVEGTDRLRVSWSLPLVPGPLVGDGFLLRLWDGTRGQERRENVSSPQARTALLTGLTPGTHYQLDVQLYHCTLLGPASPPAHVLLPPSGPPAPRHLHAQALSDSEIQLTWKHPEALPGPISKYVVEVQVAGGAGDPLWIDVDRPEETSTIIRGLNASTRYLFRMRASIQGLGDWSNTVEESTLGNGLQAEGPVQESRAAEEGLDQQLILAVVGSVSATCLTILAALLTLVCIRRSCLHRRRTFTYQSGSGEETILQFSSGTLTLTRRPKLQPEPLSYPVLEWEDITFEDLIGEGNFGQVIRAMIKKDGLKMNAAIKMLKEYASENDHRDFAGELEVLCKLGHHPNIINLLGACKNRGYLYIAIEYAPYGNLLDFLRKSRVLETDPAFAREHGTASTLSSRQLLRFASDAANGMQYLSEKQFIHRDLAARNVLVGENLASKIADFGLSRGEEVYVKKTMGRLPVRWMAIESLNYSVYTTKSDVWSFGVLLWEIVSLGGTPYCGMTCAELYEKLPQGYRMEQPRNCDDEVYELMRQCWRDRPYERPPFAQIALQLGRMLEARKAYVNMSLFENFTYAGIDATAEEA

Tie1 = target: T2, Tie1 (Homo sapiens, UniProt P35590); conditions: statement in words, no data shown
T2 sequence (P35590 22-1138): T1 sequence (P35590 22-1138)

Tie complex formation [1]: induce Tie complex formation
B1: DX-2220: full length, IgG1, germlined human anti-Tie1 antibody E3b (SEQ ID NO:700, 701) (antibody)
heavy: EVQLLESGGGLVQPGGSLRLSCAASGFTFSMYGMVWVRQAPGKGLEWVSVISPSGGNTGYADSVKGRFTISRDNSKNTLYLQMNSLRAEDTAVYYCARAPRGYSYGYYYWGQGTLVTVSS[human IgG1 constant region left out]
light: DIQMTQSPSSLSASVGDRVTITCRASQGIGHYLAWYQQKPGKVPKLLIYTASTLQSGVPSRFSGSGSGTDFTLTISSLQPEDVATYYCQQFNSYPHTFGQGTRLEIKRTVAAPSVFIFPPSDEQLKSGTASVVCLLNNFYPREAKVQWKVDNALQSGNSQESVTEQDSKDSTYSLSSTLTLSKADYEKHKVYACEVTHQGLSSPVTKSFNRGEC
down modulation of Tie1 from the cell surface (Tie1): down modulation of Tie1 from the cell surface
